Measured values taken from PubChem BioAssay AID504466 (National Center for Advancing Translational Sciences (NCATS), 2011).
Hit rate of the full screen: of about 330,000 compounds, about 4,200 (1.3%) were called active. Inconclusive results, whose numbers are uncertain, are shown with a selection of clear calls. Calls come from the whole dose curve; as a rule, active = well fitted activation curve with a large enough effect; inconclusive = small, poorly fitted or top-dose-only effect; inactive = no such curve, though single readings can be large or run the other way. Potencies of inconclusive entries are doubtful fits and often do not repeat.
Potency is the fitted concentration of half-maximal effect; tags give direction and shape of the fitted curve.

Assay: qHTS screen for small molecules that induce genotoxicity in human embryonic kidney (HEK293T) cells expressing luciferase-tagged ELG1; note: nearly all actives have a fitted effect of over 60% in size; for activity change, positive = activation: % of control where 0% means no effect
Conditions: HEK293T ELG1-luciferase reporter, luminescence, 16 h; series mostly up to 46 µM; activity change, positive = activation: at the top concentration
Summary of the method: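 DMSO vehicle served as control against compound-treated ELG1-luciferase HEK293T cells; exposure lasted 16 hr at 37 °C and 5% CO2, followed by ONE-Glo luminescence detection after 30 min.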
With `CCCCc1nnc(NC(=O)CSc2nc(O)c(Cc3ccccc3)c(=O)[nH]2)s1` the “activity change, positive = activation” value was inactive: 0.89%.
With `CC1CCN(S(=O)(=O)c2ccc(C(=O)Nc3sccc3C(N)=O)cc2)CC1` the Potency was inconclusive: 29.1 µM [activator, partial curve, poor fit].
For `CS(=O)(=O)n1nc(OC(=O)c2cc(Br)ccc2Cl)cc1N`, the “activity change, positive = activation” value was inactive: 2.46%.
For `CC(=O)Nc1ccc(OC(=O)c2cccs2)cc1`, the “activity change, positive = activation” value was inactive: -1.19%.
With `O=[N+]([O-])c1cccnc1NCCc1ccccc1` the Potency was inconclusive: 29.1 µM [activator, single point].
For `COC(=O)Cn1ncc2c(C)n(Cc3ccccc3)c(C)c2c1=O`, the Potency was active: 20.6 µM.
In the case of `O=C(O)c1ccccc1C(=O)Nc1cc(-c2ccccc2)[nH]n1`, the “activity change, positive = activation” value is reported as inactive: 1.87%.
With `CC(C)N1C(=O)S/C(=C\c2ccc(-c3ccc(Cl)c(C(=O)O)c3)o2)C1=O` the Potency was active: 1.16 µM.
With `O=C(Oc1ccccc1/C=C\C(=O)c1cc2ccccc2o1)c1cccc(F)c1` the Potency was inconclusive: 20.6 µM [activator, single point].
For `CNC(=O)CSc1nc2ccccc2c(=O)n1-c1cc(OC)ccc1OC`, the Potency was inconclusive: 23.1 µM [activator, single point].
In the case of `CS(=O)(=O)c1nc(S(=O)(=O)c2ccc(Cl)cc2)c(NCCCN2CCOCC2)s1`, the “activity change, positive = activation” value is reported as inactive: -0.654%.
For `CCCc1nnc(NC(=O)CCC(=O)Nc2ccc(Cl)cc2)s1`, the Potency was inconclusive: 25.9 µM [activator, single point].
For `C=CCNC(=O)/C(C#N)=C/c1ccc(C)o1`, the “activity change, positive = activation” value was inactive: 7.29%.
With `O=C(O)CCC(=O)OCc1c(-c2ccccc2)ncc2ccccc12` the “activity change, positive = activation” value was inactive: -0.173%.
With `C=CCn1c(C)cc(C(=O)CSc2nc3ccccc3o2)c1C` the Potency was active: 1.64 µM.
With `COc1cccc(N/C(C)=C/C(=O)c2ccc(Br)cc2)c1` the Potency was inconclusive: 20.6 µM [activator, single point].
With `COc1cccc(NC(=O)CSc2nc3n[nH]c(C)c3c(=N)n2-c2cccc(OC)c2)c1` the “activity change, positive = activation” value was inactive: -6.87%.
With `Cc1cc(C)nc(SCC(=O)N/N=C/c2cccc([N+](=O)[O-])c2)n1` the Potency was inconclusive: 29.1 µM [activator, partial curve, poor fit].
In the case of `NC(=O)c1nn(-c2ccccc2)nc1NC(=O)Cn1nnc(-c2ccccc2)n1`, the Potency is reported as inconclusive: 18.4 µM [activator, partial curve, poor fit].
With `CCCCN1CC[C@@H]2C=CC[C@H](C(=O)OC)[C@@H]2C1=O` the “activity change, positive = activation” value was inactive: 7.47%.
For `C/C(=N\NC(=O)C1COc2ccccc2O1)c1ccccn1` (stereo not given), the Potency was active: 11.6 µM.
With `O=C(Nc1ccc2c(c1)OCCO2)C(=O)c1c[nH]c2ccccc12` the Potency was inconclusive: 0.073 µM [activator, full curve, poor fit].
In the case of `O=C(Nc1cccnc1)c1noc2c1CCCC2`, the Potency is reported as inconclusive: 20.6 µM [activator, partial curve].
For `N#C/C(=C\c1ccccn1)c1nc2ccccc2s1`, the Potency was inconclusive: 23.1 µM [activator, single point].
In the case of `COc1ccc2nc(N3C(=O)CNC3=S)sc2c1`, the Potency is reported as active: 20.6 µM.
For `CN1CCN(c2nc(-c3cc4ccccc4o3)cs2)CC1`, the Potency was inconclusive: 8.2 µM [activator, partial curve].
For `O=C(O)c1ccc(N/N=C2/CCSc3ccc(F)cc32)cc1`, the Potency was inconclusive: 16.4 µM [activator, single point].
In the case of `CNC(=O)N(O)C1N(/N=C/c2cc(Br)ccc2O)C(=S)SC1(C)C` (stereo not given), the “activity change, positive = activation” value is reported as inactive: 2.43%.
For `COC(=O)[C@H](CC(C)C)NC(=O)Nc1ccc2c(c1)OCCO2`, the Potency was inconclusive: 14.6 µM [activator, single point].
For `Cc1cccc(C2CC(c3ccc(F)cc3)Nc3nc(N)nn32)c1` (stereo not given), the “activity change, positive = activation” value was inactive: 2.5%.
In the case of `O=C(CSc1nnc(NC(=O)c2ccco2)s1)Nc1cccc(F)c1`, the Potency is reported as inconclusive: 10.3 µM [activator, single point].
For `O=C(Nc1ccc(C(=O)N2CCC(N3CCOCC3)CC2)cc1)c1ccc(Br)o1`, the “activity change, positive = activation” value was inactive: 6.49%.
In the case of `COc1ccc(NC(=O)C2=Cc3cccc(OC)c3OC2)cc1`, the Potency is reported as inconclusive: 4.11 µM [activator, full curve].
In the case of `O=C(O)CSCC(=O)Nc1ccc(-c2nc3ccccc3s2)cc1`, the Potency is reported as inconclusive: 18.3 µM [activator, single point].
With `O=C(NCSc1ccccc1)c1ccccc1` the Potency was inconclusive: 14.6 µM [activator, partial curve].
In the case of `Brc1ccc(-c2cn3cccnc3n2)cc1`, the Potency is reported as active: 2.91 µM.
In the case of `Oc1c(CN2CCOCC2)ccc2ccccc12`, the “activity change, positive = activation” value is reported as inactive: 1.29%.
With `COc1cccc(N=c2oc3ccccc3cc2-c2nc3ccccc3[nH]2)c1` the Potency was inconclusive: 9.2 µM [activator, partial curve].
With `CCOC(=O)c1c(C)nc2sc(C(=O)Nc3ccccc3)c(N)c2c1-c1ccc(OC)cc1` the “activity change, positive = activation” value was inactive: -0.147%.
In the case of `O=C(c1c[nH]c2ccccc12)C(Cl)c1ccccc1` (stereo not given), the “activity change, positive = activation” value is reported as inactive: -3.76%.
For `O=C(COc1ccc(Nc2ccccc2)cc1)Nc1ccncc1`, the Potency was inconclusive: 18.3 µM [activator, single point].
For `CC(=O)Nc1ccc(C2=NN(Cc3nnc(-c4ccccc4)o3)C(=O)SC2)cc1`, the “activity change, positive = activation” value was inactive: -3.07%.
For `CCOC(=O)c1cnc(-n2nc(C)cc2C)nc1Oc1ccc(C(=O)OC)cc1`, the “activity change, positive = activation” value was inactive: -1.85%.
In the case of `CCOC(=O)/C(C(=O)Nc1ccccc1Cl)=C1/NC(C)(C)Cc2ccccc21`, the Potency is reported as inconclusive: 16.4 µM [activator, partial curve, poor fit].
For `Cc1cc(C)n(S(=O)(=O)c2ccc(C)c(C)c2)n1`, the “activity change, positive = activation” value was inactive: -1.03%.
With `COc1ccc(-n2cc3ccc([N+](=O)[O-])cc3n2)cc1` the Potency was inconclusive: 2.59 µM [activator, partial curve].
With `CC(C)Oc1ccc(CNC(=O)Cn2c(=O)c3cccn3c3cccnc32)cc1` the “activity change, positive = activation” value was inactive: -5.2%.
For `Cc1sc(NC(=O)c2cccs2)c(C(N)=O)c1C`, the Potency was inconclusive: 18.4 µM [activator, partial curve, poor fit].
With `CCOC(=O)c1c(C)[nH]c(C(=O)OCc2ccccc2)c1C` the Potency was active: 1.83 µM.
In the case of `Cc1ccccc1OCc1nnc(SCC(=O)Nc2ccc3c(c2)oc2ccccc23)n1C`, the Potency is reported as inconclusive: 23.1 µM [activator, partial curve, poor fit].
